This is one part of the list.
Tests used:
HSkMC = human skeletal muscle cells; test: cytotoxicity call (relative viability < 0.9); settings: 10 µM
HepG2 = test: cytotoxicity call (relative viability < 0.9); settings: 10 µM
S. aureus RN4220 = test: growth inhibition call (relative growth <= 0.2); settings: 50 µM

Compound | cytotoxicity call (HSkMC) | cytotoxicity call (HepG2) | growth inhibition call (S. aureus RN4220)
O=C(CCCCCC(=O)N/N=C/[C@H](O)[C@@H](O)[C@@H](O)[C@H](O)C(=O)O)NO | inactive | inactive | inactive
NC(=O)c1cc(S(=O)(=O)N2CCOCC2)ccc1F | inactive | active | inactive
C[C@H](CO)N1C[C@H](C)[C@@H](CN(C)CC2CCCCC2)OCCCC[C@H](C)Oc2ccc(NC(=O)C3CCCCC3)cc2C1=O | inactive | inactive | inactive
Clc1ccc([C@@H](c2ccccc2Cl)C(Cl)Cl)cc1 | inactive | inactive | inactive
COc1ccc(NC(=O)N(C)C[C@H]2OCCCC[C@H](C)Oc3ccc(NC(=O)NC4CCCCC4)cc3C(=O)N([C@@H](C)CO)C[C@@H]2C)cc1 | inactive | inactive | inactive
COc1ccc(S(=O)(=O)N(C)C[C@@H]2Oc3c(NS(C)(=O)=O)cccc3C(=O)N([C@H](C)CO)C[C@@H]2C)cc1 | inactive | inactive | inactive
COc1ccc(S(=O)(=O)N(C)C[C@@H]2Oc3ccc(NC(=O)CCN4CCOCC4)cc3CC(=O)N([C@H](C)CO)C[C@H]2C)cc1 | inactive | inactive | inactive
Cc1noc(C)c1NC(=O)Nc1ccc2c(c1)C(=O)N([C@@H](C)CO)C[C@H](C)[C@@H](CN(C)Cc1ccc(C(F)(F)F)cc1)OCCCC[C@H](C)O2 | inactive | inactive | inactive
Cc1ccc(S(=O)(=O)N(C)C[C@H]2OCCCC[C@@H](C)Oc3ccc(NC(=O)Nc4cccc5ccccc45)cc3C(=O)N([C@H](C)CO)C[C@@H]2C)cc1 | inactive | inactive | inactive
C[C@@H](SC(=S)N1CCOCC1)C(=O)O | inactive | inactive | inactive
O=C(O)c1cccc(O)c1O | inactive | inactive | inactive
C[C@H](CO)N1C[C@H](C)[C@H](CN(C)C(=O)Nc2cccc3ccccc23)OCCCC[C@H](C)Oc2ccc(NC(=O)c3ccccc3)cc2C1=O | inactive | inactive | inactive
CCC(=O)N1C[C@]2(C1)CN([C@H](CO)c1c2c2ccc(cc2n1C)OC)C(=O)CN1CCOCC1 | inactive | inactive | inactive
C[C@@H]1CN([C@H](C)CO)C(=O)Cc2cc(NS(=O)(=O)c3cccs3)ccc2O[C@@H]1CN(C)S(C)(=O)=O | inactive | inactive | inactive
C[C@@H]1CN([C@H](C)CO)C(=O)Cc2cc(NC(=O)c3ccncc3)ccc2O[C@H]1CN(C)Cc1ccc(Oc2ccccc2)cc1 | inactive | inactive | inactive
CC1CCC2(C(=O)O)CCC3(C)C(=CCC4C5(C)CC(O)C(O)C(C)(CO)C5C(O)CC43C)C2C1C (stereo not given) | inactive | inactive | inactive
C[C@@H]1CN([C@@H](C)CO)C(=O)c2cccc(NS(=O)(=O)c3ccc(F)cc3)c2O[C@@H]1CN(C)S(=O)(=O)c1cn(C)cn1 | inactive | inactive | inactive
COc1ccc(S(=O)(=O)Nc2ccc3c(c2)C(=O)N([C@H](C)CO)C[C@H](C)[C@H](CN(C)S(=O)(=O)c2cn(C)cn2)OCCCC[C@H](C)O3)cc1 | inactive | inactive | inactive
Cc1ccc[nH]c1=O | inactive | inactive | inactive
O=C(C[C@@H]1CC[C@@H]2[C@H](COC[C@H](O)CN2C(=O)Nc2ccc(Cl)c(Cl)c2)O1)NCc1ccncc1 | inactive | inactive | inactive

Compound | cytotoxicity call (HSkMC) | cytotoxicity call (HepG2) | growth inhibition call (S. aureus RN4220)
C[C@H](CO)N1C[C@H](C)[C@@H](CN(C)C(=O)Nc2ccccc2)Oc2cc(Br)ccc2S1(=O)=O | inactive | inactive | inactive
Cc1ccc(S(=O)(=O)N[C@H](C(=O)NCCn2cc(-c3cccc(/C=C/C(=O)NO)c3)nn2)C(C)C)cc1 | inactive | inactive | inactive
COc1ccc(S(=O)(=O)N2c3ccc(Cl)cc3[C@](O)(c3ccccc3Cl)[C@@H]2C(=O)N2CCC[C@H]2C(N)=O)cc1OC | inactive | inactive | inactive
COc1ccc(S(=O)(=O)Nc2ccc3c(c2)C(=O)N([C@@H](C)CO)C[C@H](C)[C@H](CN(C)C(=O)NC2CCCCC2)OCCCC[C@@H](C)O3)cc1 | inactive | inactive | inactive
O=C(O)C1(Cn2ccnc2)CC1 | inactive | inactive | inactive
C[C@@H]1CN([C@H](C)CO)S(=O)(=O)c2ccc(C#C[C@@H](C)O)cc2O[C@@H]1CN(C)C(=O)Nc1ccccc1 | inactive | inactive | inactive
NNC(=O)CCCCC(=O)NO | inactive | active | inactive
C[C@H](CO)N1C[C@H](C)[C@@H](CN(C)C(=O)CN(C)C)Oc2cc(C#CCC3CCCC3)ccc2S1(=O)=O | inactive | inactive | inactive
Cc1ccc(S(=O)(=O)N(C)C[C@H]2Oc3c(NC(=O)Nc4ccc(C(F)(F)F)cc4)cccc3C(=O)N([C@H](C)CO)C[C@@H]2C)cc1 | inactive | inactive | inactive
CCCCCCCCCCCCCCSCC(=O)O | inactive | inactive | inactive
C[C@H](CO)N1C[C@H](C)[C@H](CN(C)Cc2ccc(C(=O)O)cc2)OCCCC[C@H](C)Oc2ccc(NS(=O)(=O)c3ccccc3)cc2C1=O | inactive | inactive | inactive
OCC(O)C(O)C(O)CO (stereo not given) | inactive | inactive | inactive
COc1ccc(NC(=O)Nc2cccc3c2O[C@@H](CN(C)S(C)(=O)=O)[C@@H](C)CN([C@@H](C)CO)C3=O)cc1 | inactive | inactive | inactive
C[C@@H]1CN([C@@H](C)CO)C(=O)c2cccc(NS(=O)(=O)c3ccc(F)cc3)c2O[C@H]1CN(C)S(=O)(=O)c1ccc(F)cc1 | inactive | inactive | inactive
C[C@@H]1CCCCO[C@@H](CN(C)S(=O)(=O)c2cccs2)[C@H](C)CN([C@@H](C)CO)C(=O)c2cc(NC(=O)Nc3ccc(F)cc3)ccc2O1 | inactive | inactive | inactive
COc1ccc(S(=O)(=O)N(C)C[C@@H]2Oc3c(NC(=O)c4ccncc4)cccc3C(=O)N([C@@H](C)CO)C[C@H]2C)cc1 | inactive | inactive | inactive
c1ccc(Nc2nc(-c3ccccc3)nc3ccccc23)cc1 | inactive | inactive | inactive
Cn1cnc(S(=O)(=O)N2C[C@H](O)COC[C@H]3O[C@H](CC(=O)N4CCN(c5ccccc5)CC4)CC[C@@H]32)c1 | inactive | inactive | inactive
NC(C(=O)NC1C(=O)N2C(C(=O)O)=C(Cl)CSC12)c1ccccc1 (stereo not given) | inactive | inactive | active
Cc1nc2ccccc2n1Cc1ccc(Cl)cc1 | inactive | active | inactive

Compound | cytotoxicity call (HSkMC) | cytotoxicity call (HepG2) | growth inhibition call (S. aureus RN4220)
CCOC(=O)C1=C(N)C(=O)N(CCCN2CCOCC2)C1 | inactive | inactive | inactive
Cc1cc(C)nc(N2CC(=O)NC2=N)n1 | inactive | inactive | inactive
COc1ccc(NC(=O)Nc2ccc3c(c2)C(=O)N([C@H](C)CO)C[C@H](C)[C@H](CN(C)Cc2ccc(-c4ccccc4)cc2)O3)cc1 | inactive | active | inactive
C[C@H](CO)N1C[C@H](C)[C@@H](CN(C)Cc2ccc(C(=O)Nc3ccccc3N)cc2)Oc2c(NC(=O)c3ccc(-c4nccs4)cc3)cccc2C1=O | inactive | inactive | inactive
COc1cccc(NC(=O)N[C@H]2CC[C@@H](CC(=O)N3CCN(C)CC3)O[C@@H]2CO)c1 | inactive | inactive | inactive
C[C@@H]1CCCCO[C@H](CN(C)C(=O)Nc2ccc(C(F)(F)F)cc2)[C@H](C)CN([C@H](C)CO)C(=O)c2cc(NS(=O)(=O)c3ccc(F)cc3)ccc2O1 | inactive | active | inactive
COc1ccc(NC(=O)Nc2ccc3c(c2)C(=O)N([C@@H](C)CO)C[C@H](C)[C@@H](CN(C)CC2CCCCC2)O3)cc1 | inactive | inactive | inactive
COc1cccc(C#Cc2ccc3c(c2)O[C@@H](CN(C)C(=O)CN2CCOCC2)[C@H](C)CN([C@@H](C)CO)S3(=O)=O)c1 | inactive | inactive | inactive
C[C@@H]1CN([C@@H](C)CO)C(=O)c2cc(NC(=O)CCCCCC(=O)Nc3ccccc3N)ccc2O[C@@H](C)CCCCO[C@@H]1CN(C)C(=O)Nc1ccc(C(F)(F)F)cc1 | inactive | inactive | inactive
C[C@H]1CN([C@@H](C)CO)C(=O)c2cc(NC(=O)CCC(F)(F)F)ccc2O[C@@H]1CN(C)Cc1ccc(-c2ccccc2)cc1 | inactive | active | inactive
COc1ccc(S(=O)(=O)N(C)C[C@H]2Oc3c(NS(=O)(=O)c4cccs4)cccc3C(=O)N([C@H](C)CO)C[C@@H]2C)cc1 | inactive | inactive | inactive
CN1CCN(C(=O)C[C@@H]2CC[C@@H](NC(=O)Cc3ccccn3)[C@H](CO)O2)CC1 | inactive | inactive | inactive
COc1cc2c(cc1OC)CN(CCc1ccc(NC(=O)c3cccc4c(=O)c5cccc(OC)c5[nH]c34)cc1)CC2 | inactive | inactive | inactive
CCC(=O)N(C)C[C@@H]1Oc2ncc(C#C[C@@H](C)O)cc2C(=O)N([C@H](C)CO)C[C@H]1C | inactive | inactive | inactive
O=C(Cn1ccc([N+](=O)[O-])n1)n1cccn1 | inactive | inactive | inactive
O=C(NCCO)c1nc(NCCO)c2ccccc2n1 | inactive | inactive | inactive
COCC#Cc1ccc([C@H]2[C@H]3CN(C(=O)c4ccncc4)CC(=O)N3[C@H]2CO)cc1 | inactive | inactive | inactive
C[C@@H]1CN([C@H](C)CO)S(=O)(=O)c2ccc(C#CC3(O)CCCC3)cc2O[C@H]1CN(C)C(=O)Cc1ccccc1 | inactive | inactive | inactive
NCC[C@@H]1CC[C@@H](NC(=O)Nc2ccc(F)cc2)[C@@H](CO)O1 | inactive | inactive | inactive
C[C@H]1CN([C@@H](C)CO)C(=O)Cc2cc(N(C)C)ccc2O[C@H]1CN(C)S(=O)(=O)c1cn(C)cn1 | inactive | inactive | inactive

From the antibiotic and cytotoxicity screens of Wong et al. (2023)
